Laboratory results as given in the RNAGym collection of RNA variant scans (doi:10.1093/nar/gkz1192).
The source gives no read counts; variants with many changes may rest on few reads.

B1: CPEB3 Ribozyme (parent)
chain: UAACAGGGGGCCACAGCAGAAGCGUUCACGUCGCAGCCCCUGUCAGAUUCUGGUGAAUCUGCGAAUUCUGCUGUAUAUCUC

Variants of: B1
Assay: self-cleavage, relative activity (ratio to wild type); higher = more cleavage; in vitro, sequencing
In short: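 Libraries of CPEB3 self-cleaving ribozyme mutants came from rounds of error-prone PCR and carried barcodes, which DNA sequencing matched to variants. In vitro transcription used T7 RNA polymerase at 37°C for 5 hours, with a further 15 min in DNase I before EDTA stopped the reaction; the ribozymes cleaved during both steps. The RNA was reverse transcribed with template switching and sequenced on Illumina. Relative activity is the cleaved/total read fraction of a variant divided by that of the unmutated ribozyme, averaged over three batches with at least 5 reads.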

Variant | self-cleavage
A20C U25C U78C | 0.1
A20G A45G U80A | 0.74
A20G C27A U51C U60C | 0.15
A20G A35G U41C | 1.21
A20G A21G U51A A64G | 0.46
A20G C32A A35G A45G U48G | 0.25
A20G A35G U43C | 0.44
A20G A21G U49A U67C | 0.39
A20G A21U A57G U66C | 0.11
A20C U49C A64G A75G | 0.12
A20G A28G C34U | 0.15
A20G A21G A45G C50U U67C U72A | 0.18
A20G A45C U78C | 0.28
A20G C23U C71U | 0.1
A20G A21G U25C U78C | 0.38
A20G A21G C23A U26A | 0.47
A20G C27U U48C A77U U78C | 0.07
A20G A28U U54C U60C A75U | 0.19
G19U U76A U78C | 0.13
A20C A35G U43C U72C | 0.52
A20G A35G U72C | 1.27
A20C C27A A28U A45G | 0.21
A20G C37U U58C A64G U69C U72C | 0.06
A20G A64G U78G | 0.6

Variant | self-cleavage
A20G A21U U58C | 0.27
A20G A35G U58C C62U | 0.33
A20G A45G A47U U69C | 0.24
A20G C34A G63U | 0.12
A20G C29U U41C U76C U78G | 0.24
A20G A35G U51C U58G U80C | 0.81
A20G A45U U66A | 0.24
A20G A28U U31A U67C | 0.42
A20G A21G A28U U60A A75C | 0.37
A20G A28G A65U U72C | 0
A20C A21U U66A U72C | 0.12
A20G A21G U54G U69C U76C | 0.15
A20G A35U C59G | 0.05
A20G A28G U31C U43C G63A A77U | 0.09
A20C A57G U60C | 0.08
A20G A35U A77U | 0.25
A20C A35G U54C U72A | 0.33
A20C U25C C50A | 0.36
A20C G30C A64G A65C U69A U72C | 0.05
A20C U66C U67C | 0.43
A20G A57U C68G | 0.14
A20G A21U U41C U43A A45U U48C | 0.47
A20G A28G C44U | 0.42
A20G A35U U43C U49C | 0.33

Variant | self-cleavage
A20G C23U U31A U78C | 0.19
A20G A45G U72C G73A A75G | 1.05
A20G C29U U48C G63C | 0.22
A20C A47G U67C G70U | 0.5
A20G A28G A65G C68A | 0.23
A20G A35U U49C U66C A77G | 0.13
A20G C37A A56U U67A | 0.1
A20G A35G U66A | 1.06
A20G A21G A28G | 0
A20G A28G U41C A56U C71A | 0.14
A20G A21G U49C C50U A57G U58C | 0.08
A20C A47G A56G U74A | 0.34
A20C C29U U31C A47G | 0.06
A20G A21G A65G | 0.32
A20G A35C A45G A47G | 0.22
A20G A28G U78A | 0.33
A20G C23A U26C U31C U41C U48G | 0.04
A20G A45G C71U | 0.16
A20G A45G C71G | 0.07
A20C U31C U43C U51A | 0.12
A20G A47G U74C A75U | 1.22
A20C U41C G42A | 0.07
A20G A65G U72A | 0.25
A20G A57G U72C G73U | 0.67

Variant | self-cleavage
A20G A21G U58A U67G U69C | 0.05
A20G A21G A35C | 0.07
A20G A35U U41C U72C | 0.59
A20G A21G C27A U51C | 0.27
A20C C29U U31C U48C | 0.08
A20G C27A U67A | 0.28
A20G C32U U54C | 0.18
A20G A21G G63C U78C | 0.3
A20G A45G U51C U69C U78C | 0.24
A20G A45U C71G | 0.16
A20G A45G U58C U74C U76C | 0.06
A20G A21G G22C | 0.25
A20G A35G U48C U66C U72C | 0.35
A20G C32A U41A U69A | 0.18
A20G A21U U31G U48C | 0.24
A20C A57G U66C U67C U74C U78C | 0.19
A20G C23U U25C A28G U78C | 0.17
A20G A35G U74A A75G | 1
A20G A28G U43G G46U U69C | 0.16
A20G A57G U69C | 0.33
A20G A28G G46U | 0.19
A20G A57G U66C | 0.3
A20G A28U U31A U43C U58A U78C | 0.06
A20G C29U A47G A65U | 0.25

Variant | self-cleavage
A20G A28G U80C | 0.57
A20G A35U A47G | 0.35
A20G A35U A47U | 0.09
A20G A65G U76C | 0.32
A20C C27U A47G U49A U51A A56U | 0.21
A20G A45G G53A U60C | 1.09
A20G A64G U80C | 0.73
A20G A21G A64U C79A | 0.05
A20G C27U U72C U74C | 0.07
A20G A28U A35U A57G | 0.21
G19U U60A A65G U76C | 0.08
A20G A56G A57G | 0.3
A20G A45U U48C A56G C68U | 0.07
A20G A28U C32A G55C | 0.22
A20G A28G A35U U76C | 0.6
A20G A45U U74C A75G | 0.48
A20G A35U A45G | 0.29
A20G A35G U41A A56U A57G G73C | 0.11
A20G A45U A47G U54C | 0.13
A20G A57U A64U C68A | 0.14
A20G A47G U66C U67C | 0.52
A20G A64G U74A | 0.54
A20G A45G A56G U60C A65G U67C A75G | 0
A20C U25A C37U A47G U60C C62G | 0.09

Variant | self-cleavage
A20G C27A A65U U69C G70C | 0.2
A20G A45G U60C | 1.06
A20G C27U C40U A75G | 0.2
A20G A35U C38U A45C A56G U60A | 0.13
A20G A28G U41A A56G U66C U72A | 0.05
A20G A45U U54A U72C | 0.28
A20G A65G U78C | 0.22
G19U U43C U48C U66C | 0.14
A20G C37U A57G | 0.29
A20C A35G A64U | 0.24
A20G A65G U80C | 0.23
A20G A35U U41C G46A A77U | 0.45
A20G A21G U51C | 0.38
A20G A21G U51A | 0.34
A20G A64U U72A A75G U76G | 0.2
A20G C23A A35U | 0.32
A20G A57G U69A U76A | 0.36
A20G C27U U69A | 0.25
A20C U78A U80A | 0.39
A20G A21G U26A A56G A57G | 0.11
A20G A21G U41A A57C U67C | 0.07
A20C U41A U43C G53A U72A | 0.12
A20C U25C A28G U69C A77U | 0.14
A20G A57G U67C U69A | 0.5

Variant | self-cleavage
A20G A35G U41C U43C U72C U80C | 1.4
A20G C38U U43C U54G G73A | 0.07
A20G A21G U60A A65G U78C | 0.12
A20G A56G A64G A65U | 0.16
A20G C32U A47C C50U U60A | 0.07
A20G A47U U76C | 0.64
A20G A28U A57G U78C | 0.34
A20G C27A C40A U49C U69A U76C | 0.04
A20G C34U A45U U69C | 0.19
A20G A21U A64G | 0.12
A20G A28U U66C | 0.29
A20G A21U U43A A64U | 0.31
A20G A21G A57G U67G | 0.12
A20G A21G A35G A64U U69C A77C | 0.05
A20C U26C U60A U72C | 0.3
A20G C38U U43C U48C | 0.06
A20G C29A U43A U66C | 0.25
A20C A35U U54C | 0.29
A20G A77U U80C | 1.22
A20G A21G U67A | 0.38
A20C C29G A65G | 0.08
A20G A56G U58G | 0.15
A20G C38U A56U U72C | 0.08
